Test results published in paper PMC11922745, “Reconstitution of SPO11-dependent double-strand break formation” (Nature, 2024).
Positions count from the first letter of the chain named. No constants are given. Whether binding was seen depends on the method and setting. Some entries that bind do so weakly or less than the wild type. Where a sequence is shown, tags or fusion partners need not be part of it. One block for each binder: values may come before it.

Assays:
[1] = biological target: T1, Flag-tagged mouse SPO11 (β isoform) E224A (mouse) (UniProt Q9WTK8); experiment: SEC; proteins co-expressed in FreeStyle 293-F cells; lysate (25 mM HEPES-NaOH pH 7.5, 500 mM NaCl) on anti-Flag M2 affinity gel, eluted with Flag peptide, then Superdex 200 Increase 10/300 GL; fractions on Coomassie-stained SDS-PAGE
T1 sequence: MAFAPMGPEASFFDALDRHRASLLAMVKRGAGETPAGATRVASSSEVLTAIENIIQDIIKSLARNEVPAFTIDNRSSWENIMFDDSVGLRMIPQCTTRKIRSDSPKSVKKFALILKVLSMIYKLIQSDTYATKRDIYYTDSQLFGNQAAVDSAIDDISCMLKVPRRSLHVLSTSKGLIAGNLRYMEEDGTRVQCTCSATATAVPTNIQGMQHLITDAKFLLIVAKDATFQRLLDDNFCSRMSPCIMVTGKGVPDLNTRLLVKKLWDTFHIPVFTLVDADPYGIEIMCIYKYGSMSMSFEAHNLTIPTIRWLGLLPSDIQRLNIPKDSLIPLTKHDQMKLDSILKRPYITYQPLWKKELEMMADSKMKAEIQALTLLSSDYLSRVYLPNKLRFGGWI

[2] = biological target: T2, Flag-tagged mouse SPO11 (β isoform) Y138F (mouse) (UniProt Q9WTK8); experiment: as above
T2 sequence: T1 sequence with Y138F, A224E

[3] = biological target: T3, Flag–SPO11–TOP6BL complex (1:1), wild type (mouse) (UniProt Q9WTK8+J3QMY9); experiment: mass photometry; self-association of the purified SPO11–TOP6BL complex, 28 nM (legend; methods say 15 nM final), 25 mM HEPES-NaOH pH 7.5, 150 mM NaCl, 2 mM DTT, without ATP; both purified
[4] = biological target: T3, Flag–SPO11–TOP6BL complex (1:1), wild type (mouse); experiment: mass photometry; self-association of the purified SPO11–TOP6BL complex, 28 nM, 25 mM HEPES-NaOH pH 7.5, 150 mM NaCl, 2 mM DTT, with 5 mM ATP; both purified
[5] = biological target: T3, Flag–SPO11–TOP6BL complex (1:1), wild type (mouse); experiment: SEC; self-association of the purified SPO11–TOP6BL complex: anti-Flag affinity-purified material on Superdex 200 Increase 10/300 GL, size standards from a separate calibration run; both purified

binding [1]: binds
binding [2]: binds
B1: mouse TOP6BL, untagged (natural protein, UniProt J3QMY9-1 1-579, looked up)
chain: MERTALAVCEILRYLIIHWKCEAGTAKGTLLDGQLVISIEALRSKHLPDSLHCIITIASTRSVYGGLNFKKFLQEIQPALPRLSAKLALASEEGGRSQDASGIAPCQVTFEVDENSQSLMTDCLVIKHFLRKIIIVHHKLKFSFSVAVNGTLSAETFGAENEPTLRLDNGVTLVVGFQRYVSKPKLNWSEAHCSRIHPVLGHPAPLFIPDAKADTGLLGELTLTPAAALCPSPKGFSSQLCRISSVSIFLYGPLGLPLLSSDQDQPSTAVFRDTSYFIDWKKYNLFMVPNLDLNLDTQSVLPDVNYKAESPEGNQSQNMNAQGPALLLFLFVDFQSDVPVQQAKIWGLHTLLTAHLSAILSESRSTVQQSIQSAVDQVWQLYHHDAKTQQRLQASLSVAVNSIMSVLTGSTRSSFRKTCLQALEAADTQEFGVKLHRIFYDITQHQFLKHCSCDTEQHLTPEKNISAQNTKDQHKNIAQEFPEESIGQAENKRPKRGSPNHGREESRVLGSARDRSPPKSATRDRELTEVSLTARGSQTQAAHGRAQAAEAASPAGGLEDLWLQEVSNLSEWLNPGHRS
notes: mouse TOP6BL, UniProt J3QMY9-1, untagged, optimized coding DNA

binding [3]: no binding (tested: 28 nM)
binding [5]: no binding
B2: Flag–SPO11–TOP6BL complex (1:1), wild type (complex, UniProt Q9WTK8-1 1-396; J3QMY9-1 1-579)
chain 1: T1 sequence with A224E
chain 2: B1 chain
binding [4]: no binding (tested: 28 nM, with 5 mM ATP)
